# Assay results taken from paper PMC4336329 (PLoS ONE, 2015).
# Out of some 310,000 compounds screened, about 14,000 (4.5%) showed an effect of 50% or more. Effects have a minus sign here. The list shows a part of the results.
# Molecular target: human ether-à-go-go-related gene (hERG) potassium channel (human, UniProt Q12809)
# Assay: primary screen, population patch clamp on CHO cells stably expressing hERG
# 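Also: peak tail current of the secondary pulse compared with the same well before compound.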
# Sequence of human ether-à-go-go-related gene (hERG) potassium channel (Q12809 whole entry, looked up): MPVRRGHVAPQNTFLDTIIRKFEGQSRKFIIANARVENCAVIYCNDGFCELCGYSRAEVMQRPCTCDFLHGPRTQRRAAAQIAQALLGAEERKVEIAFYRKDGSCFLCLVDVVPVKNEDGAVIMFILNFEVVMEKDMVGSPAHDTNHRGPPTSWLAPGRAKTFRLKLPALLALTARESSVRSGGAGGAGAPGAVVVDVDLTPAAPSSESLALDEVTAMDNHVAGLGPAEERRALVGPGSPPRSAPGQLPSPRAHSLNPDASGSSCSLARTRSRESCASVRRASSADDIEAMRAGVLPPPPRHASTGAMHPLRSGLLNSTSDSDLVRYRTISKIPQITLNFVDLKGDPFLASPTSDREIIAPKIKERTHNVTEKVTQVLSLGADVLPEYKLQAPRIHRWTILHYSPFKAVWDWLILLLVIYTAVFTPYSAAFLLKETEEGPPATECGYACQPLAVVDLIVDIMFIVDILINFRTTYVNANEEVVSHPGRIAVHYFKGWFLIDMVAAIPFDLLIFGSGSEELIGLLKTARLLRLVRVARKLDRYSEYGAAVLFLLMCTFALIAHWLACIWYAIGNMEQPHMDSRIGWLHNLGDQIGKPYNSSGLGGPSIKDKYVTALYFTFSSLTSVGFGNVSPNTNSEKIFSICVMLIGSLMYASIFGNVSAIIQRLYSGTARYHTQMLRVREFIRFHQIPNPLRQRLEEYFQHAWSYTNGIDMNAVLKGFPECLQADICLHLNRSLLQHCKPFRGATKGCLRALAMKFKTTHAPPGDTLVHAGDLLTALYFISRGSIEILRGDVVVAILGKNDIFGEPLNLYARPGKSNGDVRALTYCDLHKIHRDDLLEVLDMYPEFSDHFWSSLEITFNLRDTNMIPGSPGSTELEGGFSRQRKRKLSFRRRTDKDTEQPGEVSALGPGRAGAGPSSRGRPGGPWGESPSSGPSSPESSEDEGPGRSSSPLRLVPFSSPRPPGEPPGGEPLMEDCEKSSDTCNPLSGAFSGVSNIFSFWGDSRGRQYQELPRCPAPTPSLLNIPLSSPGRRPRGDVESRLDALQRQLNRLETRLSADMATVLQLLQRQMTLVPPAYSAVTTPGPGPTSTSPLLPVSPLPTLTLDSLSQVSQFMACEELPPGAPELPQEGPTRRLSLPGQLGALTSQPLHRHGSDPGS
row,Compound,"hERG current change (%, negative = inhibition) at 10uM"
1,O=C1CC(/C=C/c2ccccn2)=Nc2ccccc2N1,12%
2,CC(C)CCOc1ccc(C(=O)O)cc1,17.2%
3,CN(C)CCCN(Cc1ccccc1)C(=S)Nc1cccc(C(F)(F)F)c1,-52.6%
4,COC(=O)C(C)N(C(=O)c1ccc(C(=O)c2ccccc2)cc1)c1c(C)cccc1C (stereo not shown),-16.7%
5,O=C(C1CC1)N1CCN(c2nc3ccccc3s2)CC1,-25.5%
6,N#Cc1ccccc1Sc1ccccc1C(=O)OCC(=O)NC1CCS(=O)(=O)C1 (stereo not shown),10.4%
7,CCOC(=O)CC1C(=O)NCCN1S(=O)(=O)c1cc(Cl)c(Cl)cc1Cl (stereo not shown),-26.5%
8,CCOC(CNC(=O)CN1C(=O)COc2ccc(S(=O)(=O)N3CC(C)CC(C)C3)cc21)OCC (stereo not shown),10.1%
9,CC(C)c1ccc(OCC(=O)NNC(=O)c2cnccn2)cc1,2.59%
10,OCC(Cc1ccccc1)Nc1c2ccccc2nc2ccccc12 (stereo not shown),-71.2%
11,Cc1ccc(NC(=O)COC(=O)Cn2nc(C)c([N+](=O)[O-])c2C)c([N+](=O)[O-])c1,15.3%
12,CCN1CCN(S(=O)(=O)c2ccc(-c3cc(C)no3)s2)CC1,1.9%
13,Cn1cc(S(=O)(=O)N2CCc3ccccc32)cc1C(=O)Nc1ccc(Cl)cc1,2.62%
14,Cc1cccc(C(=O)OCC(=O)N2CCCCCC2)c1O,2.78%
15,COC(=O)C1=C(C)OC(N)=C(C#N)C1c1cccnc1 (stereo not shown),13.3%
16,O=C(NC1CC1)C1=C[C@H](c2csc3ccccc23)C[C@H](OCc2ccc(CO)cc2)O1,-30%
17,O=C(COc1ccc(Br)cc1)c1ccc2c(c1)CCCC2,-1.14%
18,COCC(C)n1c(C)cc(C(=O)CSc2cc(C)c3ccccc3n2)c1C (stereo not shown),4.64%
19,CC1(C)CC2CC(C)(CN2C(=O)c2cc(-c3ccc(F)cc3)on2)C1 (stereo not shown),6.4%
20,O=C(Nc1ccc(N2CCN(c3ccc(C(F)(F)F)cn3)CC2)nc1)c1cccs1,6.54%
21,COc1ccc(OCC(O)CN(CCO)CC(O)Cn2ccc3ccccc32)cc1 (stereo not shown),-16.5%
22,O=S(=O)(c1ccc2c(c1)CCN2)N1CCCC1,-1.58%

row,Compound,"hERG current change (%, negative = inhibition) at 10uM"
1,C=C(C)CSc1nc2nc(C)cc(C)n2n1,4.09%
2,CN(C)S(=O)(=O)c1ccc(C(=O)Nc2ccc(S(=O)(=O)NC3=NCCCCC3)cc2)cc1,-10.3%
3,COC(=O)c1ccc(CNC(=O)COC(=O)c2ccccc2-c2ccccc2)cc1,-20.6%
4,O=C(COC(=O)c1n[nH]c(=O)c2ccccc12)c1ccc(Cl)cc1,8.49%
5,CN(C)S(=O)(=O)c1cccc(-c2nnc(-c3ccccc3)o2)c1,-4.52%
6,O=C(c1cc2cc(Br)cc(Br)c2oc1=O)N1CCOCC1,-17.7%
7,CN(C)CCCNC1CS(=O)(=O)CC1O.Cl (stereo not shown),6.43%
8,O=C(O)c1cc2c(s1)-c1ccccc1CC2,1.71%
9,Cc1ccc(NS(=O)(=O)c2cccc(C(=O)N3CCN(c4ncccn4)CC3)c2)cc1,6.31%
10,CCCCNC(=O)c1onc(CSc2ccccc2F)c1C(=O)O,17.9%
11,Cc1c(NC(=S)N/C(=N/S(=O)(=O)c2ccccc2)c2ccccc2)c(=O)n(-c2ccccc2)n1C,20.2%
12,O=C(CN1CCOCC1)NNc1nc(-c2ccccc2)c2cc(Br)ccc2n1,-38.7%
13,Cc1ccc(S(=O)(=O)Nc2ccc3nc(N)sc3c2)cc1,-11%
14,Cc1cc(CNC(=O)c2cccc([N+](=O)[O-])c2)c2ccccc2n1,6.72%
15,COc1cccc(NC(=O)CN2CCN(C(=O)c3ccco3)CC2)c1,13.4%
16,C=CCNC(=O)CSc1nc2ccccc2c(=O)n1CCc1ccc(OC)c(OC)c1,-15.4%
17,CCOc1ccc(-c2nnc(-c3cccs3)o2)cc1,11%
18,Cn1c(Sc2ccc(C(=O)O)cc2[N+](=O)[O-])nnc1-c1ccccc1,-6.68%
19,Cc1ccc(C2(O)CCN3CCCCC32)cc1 (stereo not shown),12.6%
20,COc1ccc(CNCc2c(C(=O)N(C)C)nc3ccc(Cl)cn23)c(OC)c1,-11.1%
21,Cc1cccc(C)c1NC1=NC(C)(C)N=C(N)N1,7.79%
22,O=C(c1cccc(S(=O)(=O)N2CCOCC2)c1)N1CCOCC1,29.3%

row,Compound,"hERG current change (%, negative = inhibition) at 10uM"
1,O=c1[nH]c(O)c(C=NC2CCCCC2)c(=O)[nH]1,1.32%
2,COc1ccc(NS(=O)(=O)c2cccc(C(=O)Nc3cccc(C(=O)O)c3)c2)cc1,27.8%
3,CCn1cc(C(=O)N2CCOCC2)c2ccccc21,5.41%
4,CC1CCCN(c2nc3c(c(=O)n(C)c(=O)n3C)n2CCSc2nc3ccccc3o2)C1 (stereo not shown),-6.73%
5,CC(=O)c1cccc(N2C(=NC(=O)C(C)C)SC3CS(=O)(=O)CC32)c1 (stereo not shown),12.4%
6,COC(=O)c1ccc(N2CCN(C(C)=O)CC2)c(NC(=O)COc2ccccc2C)c1,-17.3%
7,CC(C)(C)NC(=O)CN(C(=O)Cn1nnc(-c2ccccc2F)n1)c1cccc2c1CCCC2,-17.7%
8,Cn1c(SCC(=O)Nc2cccc(S(=O)(=O)NC3=NCCCCC3)c2)nnc1-c1ccncc1,2.16%
9,CCN(CC(=O)Nc1cc(Cl)ccc1C)C(=O)CCS(=O)(=O)c1ccc(C)cc1,-14.2%
10,CCOc1ccc2ccccc2c1/C=N/NC(=O)CC1(C)OCCCO1,-4.84%
11,NS(=O)(=O)c1cc(C(=O)OCC(=O)Nc2ccc(N3CCCCC3)cc2)ccc1Cl,5.39%
12,CCN(CC)S(=O)(=O)c1cc(C(=O)c2nccn2C)ccc1Cl,-11.4%
13,COc1ccccc1NC(=O)CSc1nnnn1-c1ccccc1F,0.354%
14,COc1cccc(N=CC2=C(O)CC(C)(C)CC2=O)c1,-6.91%
15,Cc1ccc(-n2c(=S)sc3c(=O)n(-c4ccccc4C)c(SCC(=O)O)nc32)cc1C,13.5%
16,CNC(=O)Nc1nnc(C(C)(C)C)s1,15.3%
17,CCCc1cc(=O)[nH]c(SCC(=O)c2cc(C)n(C(C)COC)c2C)n1 (stereo not shown),-6.74%
18,COc1cccc(N2CC(NS(=O)(=O)c3ccc(Cl)cc3)CC2=O)c1 (stereo not shown),-6.53%
19,CC#CC(=O)N1CCCC(C(=O)c2ccc(SC)cc2)C1 (stereo not shown),-3.3%
20,CC(CC12CC3CC(CC(C3)C1)C2)NCc1ccccc1O.Cl (stereo not shown),-3.36%
21,CC(=Nc1ccc2c(c1)CCC2)c1c(O)n(-c2ccccc2)c(=O)[nH]c1=O,14%
22,COc1cc(=O)[nH]c(=O)n1C(=O)Cc1ccccc1,8.18%

row,Compound,"hERG current change (%, negative = inhibition) at 10uM"
1,NCC(c1ccccc1Cl)c1c[nH]c2ccccc12 (stereo not shown),12.8%
2,O=C(CCn1c(=O)oc2ccccc21)Nc1nccs1,4.95%
3,S=C(NCCC(c1ccccc1)c1ccccc1)Nc1ccc(Cl)cc1,4.29%
4,COc1cc(OC)cc(C(=O)NCC(=O)OCC(=O)N2CCc3ccccc32)c1,-2.71%
5,CCCNc1nc(C)c(C(C)=O)cc1C#N,18.6%
6,CCN(CC)S(=O)(=O)c1ccc(NC2c3ncccc3C(=O)N2Cc2ccccc2)cc1 (stereo not shown),-41%
7,Cc1ccccc1Nc1cc2ccccc2c(=O)[nH]1,-17.9%
8,C=CCn1c(C)c(C(C)=O)c(N2CCCC2)nc1=S,9.64%
9,CCOC(=O)N1CCN(CCC(=O)Nc2cc(C)ccc2C)CC1,5.35%
10,O=S(=O)(NCC1CCCO1)c1ccc(S(=O)(=O)N(Cc2ccccc2F)C2CCCCC2)cc1 (stereo not shown),0.619%
11,CCn1c(=O)c(C(=O)CN2CCOCC2)c(N)n(Cc2ccccc2)c1=O,-19%
12,O=C(CN(Cc1ccco1)Cc1cccs1)N1CCN(S(=O)(=O)c2cccc(F)c2)CC1,-48.7%
13,Cc1cc(C)c(S(C)(=O)=O)c(Sc2ccc(Cl)cc2)n1,17.2%
14,COc1ccc(/C=N/N=C/c2ccc(OC)c(O)c2)cc1O,23.2%
15,O=C(c1cc(COc2c(F)cccc2F)on1)N1CCC(c2ccccc2F)C1 (stereo not shown),20.4%
16,Cc1c(C(=O)C(=O)N2CCCc3ccccc32)c2ccccc2n1C,-5.08%
17,O=C(Nc1cccnc1)c1cc2c(ccc3ccccc32)o1,1.08%
18,O=C(CCn1ccc2cc(S(=O)(=O)N3CCCC3)ccc21)NCCc1ccccc1,-16.9%
19,CC(=O)c1cccc(NC(=O)C2(c3ccccc3)CC2(Cl)Cl)c1 (stereo not shown),-6.27%
20,CCO[C@@H]1OC(C(=O)NC2CC2)=C[C@H](c2ccccc2)[C@H]1CCCO,8.58%
21,Cc1cccc(C)c1NC(=O)CCCN1CC(C)OC(C)C1 (stereo not shown),4.1%
22,C#CCOCCOCCOCCNc1nc(N2CCOCC2)nc(N2CCN(C(=O)[C@H](Cc3ccc(O)cc3)n3cc([C@@H](N)CC(C)C)nn3)CC2)n1.Cl,10.7%
